Assay results: PMC11187062
Residue numbers refer to the chain shown, from its start. In names and notes the source's numbering stands. No constants are given. Whether binding was seen depends on the method and setting. Some binding calls cover weakened binding; strength is not graded here.

T1: human UHRF1 PHD finger, residues 299–366 (human) (UniProt Q96T88)
T1 sequence: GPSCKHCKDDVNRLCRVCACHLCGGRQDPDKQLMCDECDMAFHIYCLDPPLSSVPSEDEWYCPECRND

B1: hDPPA3_(81-118) L88A (domain or fragment, UniProt Q6W0C5 81-118)
chain: SRRGVRTALSVQREKMARLRYMLLGGVRTHERRPTNKE
B2: human DPPA3, residues 81–118 (recombinant) (domain or fragment)
chain: B1 chain with A8L
B3: hDPPA3_(81-118) V85A (domain or fragment, UniProt Q6W0C5 81-118)
chain: B1 chain with V5A, A8L
B4: hDPPA3_(81-118) R86A/T87A (domain or fragment, UniProt Q6W0C5 81-118)
chain: B1 chain with R6A, T7A, A8L

Columns and labels:
[1] = target: T1, human UHRF1 PHD finger, residues 299–366 (human); assay: ITC; Microcal PEAQ-ITC, 293 K, 10 mM HEPES pH 7.5, 150 mM NaCl, 0.25 mM TCEP; one-site model; at least three independent titrations; both purified
[2] = target: T1, human UHRF1 PHD finger, residues 299–366 (human); assay: NMR titration; 1H-15N HSQC of 30 µM [15N]-hPHD titrated with non-labelled hDPPA3_(81-118) at 0, 15, 30 and 60 µM; both purified
[3] = target: T1, human UHRF1 PHD finger, residues 299–366 (human); assay: condition: only with excess H3_(1-37W) peptide (hPHD:hDPPA3_(81-118):H3 = 1:2:8); NMR titration; competition: 1H-15N HSQC at 293 K of 60 µM [15N]-hPHD with hDPPA3_(81-118) and/or H3_(1-37W) peptide at molar ratios hPHD:hDPPA3:H3 of 1:0:0, 1:2:0, 1:0:2, 1:2:2 and 1:2:8; both purified

Binder | binding [1] | binding [2] | binding [3]
B1 | binds weakly | – | –
B2 | – | binds weakly | no binding
B3 | binds weakly | – | –
B4 | no binding (tested: >85.0 µM) | – | –
